Results taken from the supplement of paper PMC4967469.
IC50 is the fitted dose that halves viability relative to control wells, and lower means more sensitive; a limit (>, <) means that the fit lies beyond the doses tested. The AUC spans the tested range (256-fold, ending at the top dose) of the same fit; it is 1 without any effect and falls as sensitivity rises. An inferred top dose comes from the curve model; the source does not state it.

Compound: O=C1NC(=O)/C(=C\c2ccc3nccnc3c2)S1 [AS605240]
Assay: Viability of human cancer cell lines after 72 h of drug (GDSC screen)
Conditions: top dose inferred
Method: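 Human cancer cell lines in 384-well plates, medium with 10% serum, drug for 72 h over a 256-fold dose range (nine 2-fold or five 4-fold steps up to the top dose). Adherent lines were fixed and stained with the nucleic acid dye Syto60, suspension lines read with resazurin; signal relative to control wells, capped at 0 and 100%. One two-parameter sigmoid per drug and line, fitted in a mixed model over all curves with the slope shared within a line.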

| Cell Line | AUC | IC50 |
| --- | --- | --- |
| CAL-27 (head and neck, adherent, top dose 20 µM) | 0.786 | 8.82 µM |
| Detroit562 (head and neck, adherent, top dose 20 µM) | 0.895 | > 20 µM |
| COR-L88 (small cell lung carcinoma, adherent, top dose 20 µM) | 0.982 | > 20 µM |
| HCC-827 (lung adenocarcinoma, adherent, top dose 20 µM) | 0.925 | > 20 µM |
| 639-V (bladder, adherent, top dose 20 µM) | 0.964 | > 20 µM |
| OVMIU (ovary, adherent, top dose 20 µM) | 0.573 | 2.09 µM |
| HCC-56 (large intestine, adherent, top dose 20 µM) | 0.572 | 1.98 µM |
| U251 (glioma, adherent, top dose 20 µM) | 0.873 | 17.8 µM |
| MES-SA (uterus, adherent, top dose 20 µM) | 0.949 | > 20 µM |
| T-T (oesophagus, adherent, top dose 20 µM) | 0.959 | > 20 µM |
| TE-12 (oesophagus, suspension, top dose 20 µM) | 0.88 | > 20 µM |
| PC-14 (lung adenocarcinoma, adherent, top dose 20 µM) | 0.857 | 13.5 µM |
| KS-1 (glioma, adherent, top dose 20 µM) | 0.826 | 16.4 µM |
| SK-PN-DW (Ewing sarcoma, adherent, top dose 20 µM) | 0.924 | > 20 µM |
| ME-180 (cervix, adherent, top dose 20 µM) | 0.699 | 4.65 µM |
| A204 (rhabdomyosarcoma, adherent, top dose 20 µM) | 0.839 | 19.9 µM |
| SU-DHL-16 (B-cell lymphoma, suspension, top dose 20 µM) | 0.915 | 14.7 µM |
| OVKATE (ovary, adherent, top dose 20 µM) | 0.886 | > 20 µM |
| JHH-4 (liver, adherent, top dose 20 µM) | 0.983 | > 20 µM |
| HuO9 (osteosarcoma, adherent, top dose 20 µM) | 0.682 | 4.3 µM |
| EMC-BAC-2 (lung adenocarcinoma, adherent, top dose 20 µM) | 0.845 | 18.6 µM |

| Cell Line | AUC | IC50 |
| --- | --- | --- |
| EoL-1-cell (haematopoietic neoplasm, suspension, top dose 20 µM) | 0.856 | 13.2 µM |
| HCC1599 (breast, suspension, top dose 20 µM) | 0.705 | 5.2 µM |
| HGC-27 (stomach, adherent, top dose 20 µM) | 0.916 | > 20 µM |
| SU-DHL-4 (B-cell lymphoma, suspension, top dose 20 µM) | 0.966 | > 20 µM |
| NCI-H345 (small cell lung carcinoma, suspension, top dose 20 µM) | 0.982 | > 20 µM |
| MOG-G-CCM (glioma, adherent, top dose 20 µM) | 0.974 | > 20 µM |
| KP-2 (pancreas, adherent, top dose 20 µM) | 0.707 | 5.06 µM |
| HMV-II (melanoma, adherent, top dose 20 µM) | 0.943 | > 20 µM |
| EW-7 (Ewing sarcoma, semi-adherent, top dose 20 µM) | 0.842 | 11.6 µM |
| OVCAR-4 (ovary, adherent, top dose 20 µM) | 0.806 | 17 µM |
| CAL-29 (bladder, adherent, top dose 20 µM) | 0.746 | 6.75 µM |
| SU-DHL-10 (B-cell lymphoma, suspension, top dose 20 µM) | 0.738 | 4.69 µM |
| RCC-ER (kidney, adherent, top dose 20 µM) | 0.938 | > 20 µM |
| DMS-53 (small cell lung carcinoma, adherent, top dose 20 µM) | 0.966 | > 20 µM |
| SW1271 (small cell lung carcinoma, adherent, top dose 20 µM) | 0.715 | 5.62 µM |
| A3-KAW (B-cell lymphoma, suspension, top dose 20 µM) | 0.615 | 2.41 µM |
| EW-13 (Ewing sarcoma, suspension, top dose 20 µM) | 0.7 | 4.88 µM |
| NCI-H82 (small cell lung carcinoma, suspension, top dose 20 µM) | 0.974 | > 20 µM |
| CAL-39 (cervix, adherent, top dose 20 µM) | 0.806 | 10.7 µM |
| MKN1 (stomach, adherent, top dose 20 µM) | 0.896 | > 20 µM |
| QIMR-WIL (acute myeloid leukaemia, suspension, top dose 20 µM) | 0.499 | 1.24 µM |

| Cell Line | AUC | IC50 |
| --- | --- | --- |
| NCI-H810 (large cell lung carcinoma, adherent, top dose 20 µM) | 0.885 | > 20 µM |
| SNU-1040 (large intestine, adherent, top dose 20 µM) | 0.717 | 6.45 µM |
| PSN1 (pancreas, adherent, top dose 20 µM) | 0.252 | 0.28 µM |
| CTV-1 (acute myeloid leukaemia, suspension, top dose 20 µM) | 0.92 | > 20 µM |
| LU-165 (small cell lung carcinoma, suspension, top dose 20 µM) | 0.988 | > 20 µM |
| OS-RC-2 (kidney, adherent, top dose 20 µM) | 0.95 | > 20 µM |
| Calu-3 (lung adenocarcinoma, adherent, top dose 20 µM) | 0.827 | 16.7 µM |
| DOV13 (ovary, adherent, top dose 20 µM) | 0.954 | > 20 µM |
| KM-H2 (Hodgkin lymphoma, suspension, top dose 20 µM) | 0.906 | 20 µM |
| MDA-MB-330 (breast, adherent, top dose 20 µM) | 0.958 | > 20 µM |
| G-292 Clone A141B1 (osteosarcoma, adherent, top dose 20 µM) | 0.976 | > 20 µM |
| MKN28 (stomach, adherent, top dose 20 µM) | 0.968 | > 20 µM |
| HCC2218 (breast, suspension, top dose 20 µM) | 0.793 | 11.8 µM |
| RERF-LC-KJ (lung adenocarcinoma, adherent, top dose 20 µM) | 0.962 | > 20 µM |
| KMS-12-BM (myeloma, suspension, top dose 20 µM) | 0.91 | 19.7 µM |
| MHH-PREB-1 (B-cell leukaemia, suspension, top dose 20 µM) | 0.918 | > 20 µM |
| ES7 (Ewing sarcoma, adherent, top dose 20 µM) | 0.761 | 7.28 µM |
| EFM-192A (breast, adherent, top dose 20 µM) | 0.922 | > 20 µM |
| RCC-JF (kidney, adherent, top dose 20 µM) | 0.828 | 14.4 µM |
| C3A (liver, adherent, top dose 20 µM) | 0.988 | > 20 µM |
| MFE-280 (endometrium, adherent, top dose 20 µM) | 0.621 | 2.95 µM |

| Cell Line | AUC | IC50 |
| --- | --- | --- |
| KELLY (neuroblastoma, adherent, top dose 20 µM) | 0.925 | > 20 µM |
| CAKI-1 (kidney, adherent, top dose 20 µM) | 0.846 | > 20 µM |
| Ca9-22 (head and neck, adherent, top dose 20 µM) | 0.85 | 13.5 µM |
| RCM-1 (large intestine, adherent, top dose 20 µM) | 0.535 | 1.59 µM |
| SCC-4 (head and neck, adherent, top dose 20 µM) | 0.927 | > 20 µM |
| MDA-MB-175-VII (breast, adherent, top dose 20 µM) | 0.814 | 12.3 µM |
| GI-ME-N (neuroblastoma, adherent, top dose 20 µM) | 0.919 | > 20 µM |
| DB (B-cell lymphoma, suspension, top dose 20 µM) | 0.922 | > 20 µM |
| MKN45 (stomach, adherent, top dose 20 µM) | 0.854 | > 20 µM |
| REH (B-cell leukaemia, suspension, top dose 20 µM) | 0.923 | > 20 µM |
| SW1116 (large intestine, adherent, top dose 20 µM) | 0.982 | > 20 µM |
| LC4-1 (lymphoblastic leukaemia, suspension, top dose 20 µM) | 0.713 | 5.38 µM |
| ChaGo-K-1 (non-small cell lung carcinoma, adherent, top dose 20 µM) | 0.914 | > 20 µM |
| KYM-1 (rhabdomyosarcoma, adherent, top dose 20 µM) | 0.991 | > 20 µM |
| NB17 (neuroblastoma, adherent, top dose 20 µM) | 0.978 | > 20 µM |
| CW-2 (large intestine, adherent, top dose 20 µM) | 0.987 | > 20 µM |
| RS4-11 (leukaemia, suspension, top dose 20 µM) | 0.888 | 19.3 µM |
| NCI-H748 (small cell lung carcinoma, suspension, top dose 20 µM) | 0.952 | > 20 µM |
